Drawing on the supplement of paper PMC4967469, this text covers AUC and IC50 for 49 cell lines.

Compound in this experiment: CC[C@H](Nc1ncnc2[nH]cnc12)c1nc2cccc(F)c2c(=O)n1-c1ccccc1 [CAL-101]
Put plainly: Viability of human cancer cell lines after 72 h of drug (GDSC screen). The method, then:
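Human cancer cell lines in 384-well plates, medium with 10% serum, drug for 72 h over a 256-fold dose range (nine 2-fold or five 4-fold steps up to the top dose). Adherent lines were fixed and stained with the nucleic acid dye Syto60, suspension lines read with resazurin; signal relative to control wells, capped at 0 and 100%. One two-parameter sigmoid per drug and line, fitted in a mixed model over all curves with the slope shared within a line.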

The IC50 comes from the fitted curve, where viability falls to half of the control; a limit (>, <) means that the fit lies beyond the doses tested. AUC sums up the same curve from the lowest dose to the 256-fold higher top dose: 1 means no effect, lower means more sensitive.

Broadly, the IC50 is the midpoint of a concentration-inhibition curve. For the cell line “CHP-212 (neuroblastoma, adherent, top dose 20 µM)”, the AUC stood at 0.878 and the IC50 came to 17.6 µM.

As to “CHSA0011 (chondrosarcoma, adherent, top dose 20 µM)”, the AUC worked out at 0.961 and the IC50 was > 20 µM.

For “CHSA0108 (chondrosarcoma, adherent, top dose 20 µM)”, the AUC came out at 0.98 and the IC50 is > 20 µM.

Take “CHSA8926 (chondrosarcoma, adherent, top dose 20 µM)”: the AUC was 0.922 and the IC50 is > 20 µM.

For “CL-11 (large intestine, adherent, top dose 20 µM)”, the AUC was 0.985 and the IC50 was > 20 µM.

As for “CMK (acute myeloid leukaemia, suspension, top dose 20 µM)”, the AUC was 0.875 and the IC50 is 14.6 µM.

With “COLO-205 (large intestine, suspension, top dose 20 µM)”, the AUC is 0.987 and the IC50 was > 20 µM.

Regarding “COLO-320-HSR (large intestine, suspension, top dose 20 µM)”, the AUC turned out to be 0.955 and the IC50 was > 20 µM.

As for “COLO-668 (small cell lung carcinoma, adherent, top dose 20 µM)”, the AUC was determined as 0.955 and the IC50 was > 20 µM.

Consider “COLO-678 (large intestine, semi-adherent, top dose 20 µM)”, for which the AUC came to 0.982 and the IC50 is > 20 µM.

For the cell line “COLO-679 (melanoma, adherent, top dose 20 µM)”, the AUC worked out at 0.957 and the IC50 is > 20 µM.

Turning to “COLO-680N (oesophagus, adherent, top dose 20 µM)”, the AUC was found to be 0.978 and the IC50 is > 20 µM.

Take “COLO-684 (endometrium, suspension, top dose 20 µM)”: the AUC was determined as 0.843 and the IC50 was 16.8 µM.

On to “COLO-783 (melanoma, adherent, top dose 20 µM)”, for which the AUC stood at 0.99 and the IC50 was > 20 µM.

Regarding “COLO-792 (melanoma, adherent, top dose 20 µM)”, the AUC was 0.966 and the IC50 is > 20 µM.

As for “COLO-800 (melanoma, adherent, top dose 20 µM)”, the AUC was 0.983 and the IC50 is > 20 µM.

“COLO-824 (breast, adherent, top dose 20 µM)”: the AUC is 0.961 and the half-inhibitory concentration (IC50) is > 20 µM.

As to “COLO-829 (melanoma, adherent, top dose 20 µM)”, the AUC worked out at 0.914 and the IC50 is > 20 µM.

Take “COR-L23 (large cell lung carcinoma, adherent, top dose 20 µM)”: the AUC was 0.948 and the IC50 is > 20 µM.

Turning to “COR-L88 (small cell lung carcinoma, adherent, top dose 20 µM)”, the AUC worked out at 0.979 and the IC50 is > 20 µM.

As for “COR-L95 (small cell lung carcinoma, adherent, top dose 20 µM)”, the AUC is 0.97 and the IC50 is > 20 µM.

Consider “COR-L105 (lung adenocarcinoma, adherent, top dose 20 µM)”, for which the AUC was 0.926 and the IC50 was > 20 µM.

As for “COR-L279 (small cell lung carcinoma, suspension, top dose 20 µM)”, the AUC was 0.836 and the IC50 was determined as 11.2 µM.

Take “COR-L303 (small cell lung carcinoma, suspension, top dose 20 µM)”: the AUC is 0.947 and the IC50 was > 20 µM.

As for “COR-L311 (small cell lung carcinoma, suspension, top dose 20 µM)”, the AUC came out at 0.93 and the IC50 is > 20 µM.

As to “COR-L321 (lung, suspension, top dose 20 µM)”, the AUC stood at 0.969 and the IC50 is > 20 µM.

“CP50-MEL-B (melanoma, adherent, top dose 20 µM)”: the AUC is 0.986 and the IC50 is > 20 µM.

Take “CP66-MEL (melanoma, adherent, top dose 20 µM)”: the AUC was found to be 0.984 and the IC50 is > 20 µM.

As for “CPC-N (small cell lung carcinoma, suspension, top dose 20 µM)”, the AUC worked out at 0.961 and the IC50 is > 20 µM.

On to CS1 (bone, adherent, top dose 20 µM), for which the AUC was determined as 0.925 and the IC50 is > 20 µM.

For the cell line “CTB-1 (B-cell lymphoma, suspension, top dose 20 µM)”, the AUC is 0.979 and the IC50 was > 20 µM.

Consider “CTV-1 (acute myeloid leukaemia, suspension, top dose 20 µM)”, for which the AUC was found to be 0.943 and the half-inhibitory concentration (IC50) was > 20 µM.

Consider “CW-2 (large intestine, adherent, top dose 20 µM)”, for which the AUC came to 0.962 and the half-inhibitory concentration (IC50) is > 20 µM.

On to “Ca9-22 (head and neck, adherent, top dose 20 µM)”, for which the AUC came to 0.98 and the IC50 was > 20 µM.

“Ca-Ski (cervix, adherent, top dose 20 µM)”: the AUC was found to be 0.876 and the IC50 is > 20 µM.

Regarding “CaR-1 (large intestine, adherent, top dose 20 µM)”, the AUC stood at 0.953 and the IC50 was > 20 µM.

With “Calu-3 (lung adenocarcinoma, adherent, top dose 20 µM)”, the AUC was found to be 0.918 and the IC50 is > 20 µM.

Consider “Calu-6 (lung adenocarcinoma, adherent, top dose 20 µM)”, for which the AUC is 0.982 and the IC50 is > 20 µM.

With “Caov-3 (ovary, adherent, top dose 20 µM)”, the AUC turned out to be 0.967 and the IC50 is > 20 µM.

With “Caov-4 (ovary, adherent, top dose 20 µM)”, the AUC came to 0.858 and the IC50 is > 20 µM.

In the case of “Capan-2 (pancreas, adherent, top dose 20 µM)”, the AUC amounted to 0.97 and the IC50 was > 20 µM.

As to “ChaGo-K-1 (non-small cell lung carcinoma, adherent, top dose 20 µM)”, the AUC was determined as 0.96 and the IC50 was > 20 µM.

Take “D-247MG (glioma, adherent, top dose 20 µM)”: the AUC was found to be 0.921 and the IC50 is > 20 µM.

In the case of “D-263MG (glioma, adherent, top dose 20 µM)”, the AUC turned out to be 0.982 and the IC50 was > 20 µM.

With “D-283MED (medulloblastoma, adherent, top dose 20 µM)”, the AUC came out at 0.985 and the IC50 is > 20 µM.

For “D-336MG (glioma, adherent, top dose 20 µM)”, the AUC amounted to 0.876 and the IC50 was > 20 µM.

Turning to “D-392MG (glioma, adherent, top dose 20 µM)”, the AUC was 0.95 and the IC50 is > 20 µM.

With “D-423MG (glioma, adherent, top dose 20 µM)”, the AUC was determined as 0.733 and the IC50 is 6.82 µM.

Consider “D-502MG (glioma, adherent, top dose 20 µM)”, for which the AUC is 0.938 and the IC50 was > 20 µM.
